The values that follow come from the RNAGym collection of RNA variant scans (doi:10.1093/nar/gkz1192).

First the molecules themselves.
B1: CPEB3 Ribozyme (parent)
chain: UAACAGGGGGCCACAGCAGAAGCGUUCACGUCGCAGCCCCUGUCAGAUUCUGGUGAAUCUGCGAAUUCUGCUGUAUAUCUC

The source gives no read counts; variants with many changes may rest on few reads.

The data set covers variants of B1. Nature of the data set: self-cleavage, relative activity (ratio to wild type); higher = more cleavage; in vitro, sequencing. In outline:
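CPEB3 self-cleaving ribozyme mutant libraries were made by rounds of error-prone PCR, barcoded, and transcribed in vitro with T7 RNA polymerase for 5 hours at 37°C. Cleavage occurred during transcription and a 15 min DNase I step before EDTA stop. RNAs were reverse transcribed with template switching and Illumina-sequenced, with DNA sequencing mapping barcodes to variants. Relative activity is the variant's cleaved/total read fraction divided by wild type's (minimum 5 reads), averaged across three batches.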
Consider UAACAGGGGGCCACAGCCGAGGCGCUCACGUCGCAGCCCCUGUCUGAUUCUGGUGAGUCUGCGAAUUCUGCCGUAUAUCUC [A18C A21G U25C A45U A57G U72C], for which the self-cleavage worked out at 0.

Consider UAACAGGGGGCCACAGUAGAAGCGUUCGCGUCGCAGCCCCUGCCAGAUUCUGGUGAAUCUGCGAAUUCUGCUGUAUAUCUU [C17U A28G U43C C81U], for which the self-cleavage was 0.15.

As for UAACAGGGGGCCACAGGAGAAGCGUCCACGUCGCAGCCCCUGUCAGAUUCUCGUGAAUCUGCGAAUUCUGCUGUAUAUCUC [C17G U26C G52C], the self-cleavage stood at 0.24.

With UAACAGGGGGCCACAGUAGAAGCGUUCACGUCGCAGCCCCCGUCAGAUUCUGGUGAACCUGCGAAUUCUGCUGUAUACCUC [C17U U41C U58C U78C], the self-cleavage amounted to 0.21.

As for UAACAGGGGGCCACAGUAGAAGCGUUCGCGUCGCCGCCCCUGCCAGAUUCUGGUGAAUCUGCGAAUUCUGCUGUAUUUCUC [C17U A28G A35C U43C A77U], the self-cleavage is 0.1.

Take UAACAGGGGGCCACAGGAGAAGCGUCCACGUCGCAGCCCCCGUCAGAUUCUGGUGAAUCUGCGAAUUCUGCAGUAUAUCUC [C17G U26C U41C U72A]: the self-cleavage amounted to 0.24.

UAACAGGGGGCCACAGCCGAAGCGUUCACGUCGCAGCCCCUGUCAGAUUCUGGUGGAUCUGCGAAUUCUGCUGUAUACCUC [A18C A56G U78C]: the self-cleavage was 0.37.

UAACAGGGGGCCACAGGAGAAGCGUUCACGUCGCAGCCCCAGUCAGGUUCUGGUGAAUCUGCGAAUUCUGCUGUAUAUCUC [C17G U41A A47G]: the self-cleavage is 0.32.

On to UAACAGGGGGCCACAGCCGAUGCGUUCACGUCGCAGCCCCUGUCAGAUUCUGGUGAAUCUGCGAAUCCUGCUGUUUAUCCC [A18C A21U U67C A75U U80C], for which the self-cleavage stood at 0.02.

UAACAGGGGGCCACAGUAGGAGCGUUCACGUCGCAGCCCCUGUCAGAUUCUGGUGAAUCUGCGAAUUCUGCUAUAUGUCUU [C17U A20G G73A A77G C81U]: the self-cleavage is 1.01.

Take UAACAGGGGGCCACAGUAGAAGCGUUCGCGUCGCAGCCCCUGCCAGAUUCUGGUGAAUCUGCGAAUUCUGCUGUAUUACUC [C17U A28G U43C A77U U78A]: the self-cleavage was 0.27.

Turning to UAACAGGGGGCCACAGUGGAAGCGUUCACGUCGCAGCCCCUGUCAGAUUCUGGUGAAUCUGCUAAUUCUGCUGUAUAUCUC [C17U A18G G63U], the self-cleavage turned out to be 0.4.

Turning to UAACAGGGGGCCACAGCCGAAGCGUUCACGUCGUAGCCCCUGUCGGAUUCUGGUGGAUCUGCGAAUUCUGCUGUAUAUCUC [A18C C34U A45G A56G], the self-cleavage is 0.08.

As for UAACAGGGGGCCACAGUAGAAGCGUUCACGUCGCAGCCCCUGUCAGAUUCAGGUGAACCUGCGAAUUCUGCUGUACAUCUC [C17U U51A U58C U76C], the self-cleavage was determined as 0.16.

With UAACAGGGGGCCACAGUAGGAGCGUCCACGUCGCAGCCCCUGUCAGAUUCUGGUGAACCUGCGAAUUCUGCUGUACAUCUC [C17U A20G U26C U58C U76C], the self-cleavage is 0.06.

As to UAACAGGGGGCCACAGUAGAAGCGUUCACGUCGCAGCCCCUGUCAGAUUCUGGUGAAUCUGUGAAUUCUGCUGUAAAUCUC [C17U C62U U76A], the self-cleavage was 0.15.

For the variant UAACAGGGGGCCACAGUAGAAGCGUUCACGUCGCAGCCCCGGUCAGAUUCUGGUGAAUCUGCGAAUUCCGCUGUAUAUCUC [C17U U41G U69C], the self-cleavage stood at 0.19.

For UAACAGGGGGCCACAGUAGAAGCGUUCACGUCGCAGCCCAUGUCAGAUUCUGGUGAAUCUGCGGAUUCUGCGGUAUAUCUC [C17U C40A A64G U72G], the self-cleavage stood at 0.1.

In the case of UAACAGGGGGCCACAGCCGAAGCGUUCACGUCGCUGCCCCUGUCAGAAUCUGGUGAAUCUGCGAAUUCUGCUGUAUACCAC [A18C A35U U48A U78C U80A], the self-cleavage was 0.03.

UAACAGGGGGCCACAGCCGAAGCGUUCACGUCACAGCCCCUGUCAGAUUCUGGUGAAUCUGCGAAUUCUGCCGAAUAUCUC [A18C G33A U72C U74A]: the self-cleavage stood at 0.26.

For UAACAGGGGGCCACAGUAGAGGCCUUCACGUCGCUGCCCCUGUCAGAUUCUGGUGAAUCUGCGAAUUCUGCUGUAUAUCUC [C17U A21G G24C A35U], the self-cleavage was determined as 0.2.

On to UAACAGGGGGCCACAGUAGAAGCGUUCACGCCGCAGCCCCUGACAGAUUCUGGUGAAUCUGCGACUUCCGCUGUAUAUCUC [C17U U31C U43A A65C U69C], for which the self-cleavage turned out to be 0.21.

For the variant UAACAGGGGGCCACAGUAGAAGCGAUCACGUCGCAGCCCCUGUCGGAUUCUGGUGUAUCUGCGAAUUCUGCUGUCUAUCUC [C17U U25A A45G A56U A75C], the self-cleavage was 0.05.

For UAACAGGGGGCCACAGUAGAAGCGUUCACGCCGCAGCCCCUGUCAGAUUCUGGUGAAUCUGCGAAUCCUGCUGUAUAUCUC [C17U U31C U67C], the self-cleavage came to 0.08.

UAACAGGGGGCCACAGGAGAAGCGUUCACGUCGCAGCCCCCGUCAGAUUCUGGUGAAUCUGCGACUUCUGCUGUAUAUCUC [C17G U41C A65C]: the self-cleavage is 0.18.

Take UAACAGGGGGCCACAGCCAAAGCGUUCACGUCGCAGCCCCUGUCAGAUUCUGGUGUAUCUGCGAAUUCUGCUGUAUAUCUC [A18C G19A A56U]: the self-cleavage worked out at 0.07.

On to UAACAGGGGGCCACAGCCGAAGCGUUCACAUCGCAUCCCCUGUCAGAUUCUGGUGAAUCUGCGAAUUCUGCUGUAUAUCUC [A18C G30A G36U], for which the self-cleavage is 0.16.

Regarding UAACAGGGGGCCACAGUAGAAGCGUUCACGUCGCGGCCCCUGUCAGAUUCUGGUGAAUCUGCGAAUUCUGCUGUAUAUCCC [C17U A35G U80C], the self-cleavage was 1.19.

In the case of UAACAGGGGGCCACAGCCGAAGCGUUCACGUCGCAGCCCCUGUCAGAUUCUGGUGAAUCUGCGAAUUCUGCUGUAUGACUC [A18C A77G U78A], the self-cleavage worked out at 0.11.

As for UAACAGGGGGCCACAGUAGAAGCGUUCACGUCGCAGCCCCUGUCAGAUUCAGGUGAAUCUGCGAAUUCUGCUAUAUAUCUC [C17U U51A G73A], the self-cleavage was found to be 1.1.

Consider UAACAGGGGGCCACAGUCGAAGCGUACACGUCGCAGCCCCUGUCAGAUUCUGGUGAAUCUGCGAAUACUGCUGUACAUCAC [C17U A18C U26A U67A U76C U80A], for which the self-cleavage was found to be 0.02.

Consider UAACAGGGGGCCACAGUAGAAGCGCUCACGUCGCAGCCCCUGCCAGAUUCUGGUGAAUCUGCGAAUUCUGCUGUAUGUCUC [C17U U25C U43C A77G], for which the self-cleavage turned out to be 0.09.

Take UAACAGGGGGCCACAGCCGAAGCGUUCACGUCGCAGCCCCUGUCGGUUUCUGGUGAAUCUGCGUAUUCUGCUGUAUAUCUC [A18C A45G A47U A64U]: the self-cleavage is 0.19.

Take UAACAGGGGGCCACAGUAGAAGCGUUCACGUCGCAGCCCCUGUCAGAUUCUGGCGAAUCCGCGAGUUCUGCUGUAUGUCUC [C17U U54C U60C A65G A77G]: the self-cleavage came to 0.12.
